PubChem BioAssay AID686979 (National Center for Advancing Translational Sciences (NCATS), 2013)
Several values for one entry are separate records, joined by “and”; a condition that tells them apart may be missing. Equal entries are not always repeated. The whole screen tested about 420,000 compounds, of which about 50,000 (12%) were called active. Inconclusive means that the source gave no clear call. Such entries were picked first, then a sample of the others. Calls come from the whole dose curve; as a rule, active = well fitted inhibition curve with a large enough effect; inconclusive = small, poorly fitted or top-dose-only effect; inactive = flat fitted curve, though single readings scatter. A potency beside an inconclusive call is a rough fit, not a confirmed value.
% is set by controls: 0 for no effect and ±100 for the full control effect; potency is the fitted concentration of half-maximal effect; tags give direction and shape of the fitted curve.

Assay: qHTS for Inhibitors of human tyrosyl-DNA phosphodiesterase 1 (TDP1): qHTS in cells in presence of CPT; note: nearly all actives have a fitted effect of over 55% in size
Conditions: chicken DT40 Tdp1-/-;hTDP1 cells + 20 nM CPT, ATP luminescence, 48 h; activity change, negative = growth inhibition: at 46.2 µM (top of the series) unless noted
Outline: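 Chicken DT40 Tdp1-/- cells complemented with human TDP1, 400 cells/well, exposed to compounds plus 20 nM camptothecin for at least 48 h at 37 C; viability read as ATP content by CellTiter-Glo luminescence.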
In the case of `CCOC(=O)C1=C(CC)Nc2ccccc2N=C1NC(=O)c1ccc(OC)c(S(=O)(=O)N2CCCCC2C)c1` (configuration not stated), the Potency was inconclusive: 18.4 µM [inhibitor, single point].
With `CCc1cccc(C)c1NC(=O)COCc1cc(-c2ccc3c(c2)OCO3)on1` the Potency was active: 23.1 µM.
For `O=C1Nc2cc(C(=O)NCCCN3CCCC3)ccc2S/C1=C/c1cccc(Cl)c1`, the Potency was active: 6.51 µM.
With `C=CCc1ccc(OCCOc2ccc(/C=N/n3cnnc3)cc2OCC)c(OC)c1` the Potency was inconclusive: 29.1 µM [inhibitor, single point].
In the case of `Cc1cc2ncc(-c3cccs3)nc2cc1C`, the “activity change, negative = growth inhibition” value was inactive: -25%.
In the case of `C[C@]12CC[C@@H]3c4ccc(O)cc4CC[C@H]3[C@@H]1CC[C@@H]2O`, the Potency was inconclusive: 26.6 µM [inhibitor, single point] and inconclusive: 18.4 µM [inhibitor, single point] and inconclusive: 56.2 µM [inhibitor, single point].
For `O=C(CN1C(=O)NC2(CCCCCC2)C1=O)Nc1ccc2c(c1)CCC2`, the Potency was inconclusive: 29.1 µM [inhibitor, single point].
With `CC(=O)c1c(O)c(C)c(O)c2c1OC1=CC(=O)/C(=C(/C)N)C(=O)C12C` (configuration not stated) the Potency was active: 14.6 µM.
With `c1ccc(Cc2c(C3CCCCC3)nc3c4ccccc4ccn23)cc1` the Potency was inconclusive: 23.1 µM [inhibitor, single point].
For `CCC(C(=O)OCC(=O)c1ccc(OC)cc1OC)c1ccccc1` (configuration not stated), the Potency was inconclusive: 29.1 µM [inhibitor, single point].
In the case of `Cc1cc(C)c(Cn2c(C)c(CNCc3ccccc3C)c(C(=O)O)c2C)c(C)c1`, the Potency was inconclusive: 29.1 µM [inhibitor, single point].
In the case of `c1cncc(-c2cc(NCc3cccs3)ncn2)c1`, the Potency was inconclusive: 18.4 µM [inhibitor, single point].
In the case of `COc1ccc(S(=O)(=O)N2CCN=C2SCc2cccc(C)c2)cc1`, the “activity change, negative = growth inhibition” value was inactive: -5.33%.
For `CCN(CC)S(=O)(=O)c1ccc(NCC2COc3ccccc3O2)c([N+](=O)[O-])c1` (configuration not stated), the Potency was active: 16.4 µM.
In the case of `Cc1ccc(Nc2nc(N)c([N+](=O)[O-])c(N3CCOCC3)n2)cc1`, the “activity change, negative = growth inhibition” value was inactive: -25.4%.
With `COC(=O)/C(C#N)=C/c1c(N2CCN(c3ccccc3)CC2)nc2c(C)cccn2c1=O` the Potency was inconclusive: 23.1 µM [inhibitor, partial curve].
With `Nc1c(C(=O)Nc2ccccc2Cl)nnn1Cc1cccc(Cl)c1` the “activity change, negative = growth inhibition” value was inactive: -22.4%.
In the case of `CCN1CCN(C(=S)NCCOC)CC1`, the Potency was inconclusive: 20.6 µM [inhibitor, single point].
For `COc1ccc(C2=NN(C(=S)Nc3ccccc3)C(c3ccccc3)C2)cc1` (configuration not stated), the Potency was inconclusive: 25.9 µM [inhibitor, single point].
For `Cc1ccc(NCc2nc3ccccc3n2CCOc2ccccc2C)cc1`, the Potency was inconclusive: 18.4 µM [inhibitor, single point].
In the case of `COCC1CCN(C(=O)C2CCN(c3nc(-c4ccccc4)nc4c3CCC4)CC2)C1` (configuration not stated), the Potency was inconclusive: 29.1 µM [inhibitor, single point].
With `O=C(CSc1nnc(CNC(=O)c2c(F)cccc2Cl)o1)Nc1ccc2c(c1)OCO2` the “activity change, negative = growth inhibition” value was inactive: -12.9%.
For `COc1cccc(Nc2nc(C(C)N)cs2)n1` (configuration not stated), the Potency was active: 13 µM.
For `CCC(C)(C)C1CCC2(CC1)NC(=O)N(CC(=O)NCCc1ccc(OC)c(OC)c1)C2=O` (configuration not stated), the Potency was inconclusive: 18.4 µM [inhibitor, single point].
For `COc1ccccc1CCn1c(=O)c(CCc2ccccc2)nc2cncnc21`, the “activity change, negative = growth inhibition” value was inactive: 2.14%.
With `CCN1CCN(C(=O)c2ccccc2N(Cc2ccccc2)S(=O)(=O)c2ccc(C)cc2)CC1` the Potency was inconclusive: 29.1 µM [inhibitor, single point].
In the case of `O=C(CC1N=C2c3ccccc3N=C(SCc3ccc(Cl)cc3)N2C1=O)NC1CCCCC1` (configuration not stated), the Potency was inconclusive: 2.59 µM [inhibitor, full curve].
With `Oc1ccccc1C1C=C(c2ccc3c(c2)OCO3)NC(c2cccc(Cl)c2)N1` (configuration not stated) the Potency was inconclusive: 22.4 µM [inhibitor, single point].
For `O=C(OCCC12CC3CC(CC(C3)C1)C2)c1ccc(NCc2cc(O)ccc2O)cc1`, the Potency was active: 1.84 µM.
For `CCOc1ccc(NS(=O)(=O)c2ccc3c(c2)N(C(C)=O)CCO3)cc1`, the Potency was inconclusive: 18.4 µM [inhibitor, single point].
In the case of `COc1ccc(C(=O)NCCNc2ccc([N+](=O)[O-])cn2)cc1`, the “activity change, negative = growth inhibition” value was inactive: -12.2%.
With `Cc1cc(-c2cccs2)c(C#N)c(=S)[nH]1` the “activity change, negative = growth inhibition” value was inactive: -25%.
In the case of `Cc1ccccc1CSc1nnc(-c2ccco2)n1Cc1ccco1`, the Potency was inconclusive: 16.4 µM [inhibitor, single point].
In the case of `Cc1noc(C)c1C(=O)Nc1ccccc1C(=O)NCCc1ccccc1`, the Potency was inconclusive: 29.1 µM [inhibitor, single point].
In the case of `CCCc1ccc(OCC(O)CN2CCN(CCO)CC2)cc1` (configuration not stated), the “activity change, negative = growth inhibition” value was inactive: 6.86%.
In the case of `COC(=O)c1cc(NC(=O)c2cnc(SC)nc2-c2ccccc2)cc(C(=O)OC)c1`, the Potency was inconclusive: 29.1 µM [inhibitor, single point].
With `O=C(N/N=C/c1ccoc1)c1ccccc1` the “activity change, negative = growth inhibition” value was inactive: 18.2%.
For `CCCCn1nc(C(=O)N2CCc3ccccc32)c2ccccc2c1=O`, the Potency was active: 18.4 µM.
With `Cc1[nH]c(-c2ccco2)nc1C(=O)O` the “activity change, negative = growth inhibition” value was inactive: -16.7%.
With `CC(C)CCNC(=O)NC(=O)COC(=O)CNC(=O)C1CCCCC1` the Potency was inconclusive: 5.8 µM [inhibitor, single point].
In the case of `COc1ccc(-c2sc(Nc3ccccc3)n[n+]2-c2ccc(F)cc2)c(C)c1C`, the Potency was active: 7.31 µM.
With `O=C(NC1=NCCS1)C1CC(=O)N(c2ccc(Cl)cc2)C1` (configuration not stated) the Potency was inconclusive: 29.1 µM [inhibitor, single point].
With `O=C(NCc1cccc(Br)c1)c1ccc(-n2cnc3cccnc32)cc1` the Potency was inconclusive: 16.4 µM [inhibitor, partial curve].
In the case of `CCOc1[nH]n(-c2ccccc2)c(=O)c1C=Nc1ccc(Cl)cc1`, the Potency was inconclusive: 20.6 µM [inhibitor, partial curve].
In the case of `Cc1ccccc1NC(=O)c1ccc2nc(N3CCOCC3)sc2c1`, the Potency was active: 18.4 µM.
For `CC(=O)c1cccc(S(=O)(=O)N2CCCC(c3nc4c(nnn4Cc4ccc(C)cc4)c(=O)[nH]3)C2)c1` (configuration not stated), the Potency was inconclusive: 29.1 µM [inhibitor, single point].
With `Cc1ccc(-c2cnc(NCc3ccc(C(C)C)cc3)n2C)cc1` the Potency was inconclusive: 29.1 µM [inhibitor, single point].
For `CCOc1ccccc1N(CC(=O)NCCSc1ccccn1)S(=O)(=O)c1ccc(C)cc1`, the Potency was inconclusive: 11.6 µM [inhibitor, single point].
In the case of `CCOC(=O)C1=C(C)Nc2ccccc2N/C1=N\S(=O)(=O)c1ccccc1`, the “activity change, negative = growth inhibition” value was inactive: -19.6%.
For `Cn1cnc(C(=O)N2CCc3ccccc3C2)c1C(=O)N1CCc2ccccc2C1`, the Potency was inconclusive: 25.9 µM [inhibitor, single point].
For `Cc1ccc(Cl)cc1N1CCN(C(=S)NCCc2ccccc2)CC1`, the Potency was inconclusive: 29.1 µM [inhibitor, single point].
With `CCOc1ccc(S(=O)(=O)c2cn(Cc3ccc(C)cc3)c3ccc(OC)cc3c2=O)cc1` the Potency was inconclusive: 20.6 µM [inhibitor, partial curve, poor fit].
In the case of `CCOc1ccc2cc(-c3nnc(Nc4ccccc4F)s3)c(=O)oc2c1`, the Potency was inconclusive: 2.91 µM [inhibitor, full curve].
With `Cc1ccc(CNC(=O)COCc2cc(-c3ccc4c(c3)OCO4)on2)cc1` the Potency was inconclusive: 20.6 µM [inhibitor, single point].
In the case of `O=C(Nc1cccc(-c2cccc(F)c2)c1)C1CCN(Cc2ccco2)CC1`, the Potency was inconclusive: 23.1 µM [inhibitor, single point].
In the case of `CC(=O)Nc1cc(-c2ccc(N3CCN(C)CC3)cc2)cn2c(-c3cccc(C(C)=O)c3)cnc12`, the Potency was inconclusive: 23.1 µM [inhibitor, single point].
In the case of `COc1ccc(C(C(=O)NCc2ccccc2)N(C(=O)Cn2nnc3ccccc32)c2ccc(F)cc2)cc1` (configuration not stated), the Potency was inconclusive: 18.4 µM [inhibitor, single point].
For `Cn1c(=O)n(Cc2ccccc2)c(=O)c2c1nc(NCC1CCCO1)n2Cc1ccccc1` (configuration not stated), the Potency was inconclusive: 35.5 µM [inhibitor, single point].
With `CCOC(=O)c1c(NC(=O)C2c3ccccc3Oc3ccccc32)sc(C(C)=O)c1C` the Potency was inconclusive: 16.4 µM [inhibitor, single point].
With `CCCN(CCC)CCCn1c(=O)[nH]c2ccccc21` the “activity change, negative = growth inhibition” value was inactive: -14.6%.
With `CCCc1nn(C)c(C(=O)Nc2cccc3ccccc23)c1Cl` the Potency was inconclusive: 18.4 µM [inhibitor, single point].
In the case of `O=c1cc(N2CCCCC2)c(-c2ccccc2)nn1Cc1ccc(Cl)cc1Cl`, the Potency was inconclusive: 29.1 µM [inhibitor, single point].
For `Cc1ccc(-n2ncc3c(N4CCC(C)CC4)ncnc32)cc1C`, the Potency was inconclusive: 20.6 µM [inhibitor, single point].
With `COc1ccc(C2=Nc3ccccc3N(C(=O)Cc3cc(OC)cc(OC)c3)C2C(=O)NC(C)(C)C)cc1` (configuration not stated) the Potency was active: 18.4 µM.
For `COc1ccc(C(=O)/C=C/C(=O)N(Cc2ccc3c(c2)OCO3)C(C(=O)NC2CCCCC2)c2ccncc2)c(O)c1` (configuration not stated), the Potency was inconclusive: 25.9 µM [inhibitor, single point].
With `Cc1ccc([C@H]2C[C@@H](n3cc(C4CC4)nn3)[C@H](O)CN2CC2CCCCC2)cc1` the Potency was inconclusive: 29.1 µM [inhibitor, single point].
In the case of `O=C(NN1C(=O)c2ccc3c4c(ccc(c24)C1=O)CC3)c1ccc(Br)cc1`, the Potency was inconclusive: 13 µM [inhibitor, partial curve].
